# According to the supplement of paper PMC8728848:
# This is one part of the list.
# What was measured:
# Assay in all cases: glycan array binding signal (z-score within array); higher = stronger binding
# Details in all cases: glycan notation: IUPAC condensed, linker removed
# Gal(a1-3)Gal(b1-4)GlcNAc = molecular target: Gal(a1-3)Gal(b1-4)GlcNAc
# Outline: (§1)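 Glycan array data were curated from 3228 arrays in the Consortium for Functional Glycomics database and kept only where the protein sequence was available. Glycan names were converted to IUPAC-condensed notation, and columns mapping to the same glycan were averaged. The binding signal is a within-array Z-score, averaged across arrays of the same protein sequence at different concentrations or buffers and across linkers. Negative Z-scores can be read as non-binding.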
# [1] = molecular target: Gal(a1-3)Gal(b1-4)GlcNAc(b1-2)Man
# Outline: as §1
# [2] = molecular target: Gal(a1-3)Gal(b1-4)GlcNAc(b1-2)Man(a1-3)[Gal(a1-3)Gal(b1-4)GlcNAc(b1-2)Man(a1-6)]Man(b1-4)GlcNAc(b1-4)GlcNAc
# Outline: as §1
# [3] = molecular target: Gal(a1-3)Gal(b1-4)GlcNAc(b1-3)GalNAc
# Outline: as §1
# [4] = molecular target: Gal(a1-3)Gal(b1-4)GlcNAc(b1-6)GalNAc
# Outline: as §1
# [5] = molecular target: Gal(a1-3)Gal(b1-4)[Fuc(a1-3)]GlcNAc
# Outline: as §1
# [6] = molecular target: Gal(a1-3)Gal(b1-4)[Fuc(a1-3)]GlcNAc(b1-2)Man(a1-3)[Gal(a1-3)Gal(b1-4)[Fuc(a1-3)]GlcNAc(b1-2)Man(a1-6)]Man(b1-4)GlcNAc(b1-4)GlcNAc
# Outline: as §1
# Gal(a1-3)GalNAc = molecular target: Gal(a1-3)GalNAc
# Outline: as §1
# [7] = molecular target: Gal(a1-3)[Gal(a1-4)]Gal(b1-4)GlcNAc
# Outline: as §1
# [8] = molecular target: Gal(a1-4)Gal(b1-3)GlcNAc(b1-2)Man(a1-3)[Gal(a1-4)Gal(b1-3)GlcNAc(b1-2)Man(a1-6)]Man(b1-4)GlcNAc(b1-4)GlcNAc
# Outline: as §1
# Gal(a1-4)Gal(b1-4)Glc = molecular target: Gal(a1-4)Gal(b1-4)Glc
# Outline: as §1
# Gal(a1-4)Gal(b1-4)GlcNAc = molecular target: Gal(a1-4)Gal(b1-4)GlcNAc
# Outline: as §1
# [9] = molecular target: Gal(a1-4)Gal(b1-4)GlcNAc(b1-2)Man(a1-3)[Gal(a1-4)Gal(b1-4)GlcNAc(b1-2)Man(a1-6)]Man(b1-4)GlcNAc(b1-4)GlcNAc
# Outline: as §1
# [10] = molecular target: Gal(a1-4)Gal(b1-4)GlcNAc(b1-3)Gal(b1-4)Glc
# Outline: as §1
# Gal(a1-4)GlcNAc = molecular target: Gal(a1-4)GlcNAc
# Outline: as §1
# Gal(a1-6)Glc = molecular target: Gal(a1-6)Glc
# Outline: as §1
# Gal(b1-2)Gal = molecular target: Gal(b1-2)Gal
# Outline: as §1
# Gal(b1-3)Gal = molecular target: Gal(b1-3)Gal
# Outline: as §1
# Gal(b1-3)Gal(b1-4)GlcNAc = molecular target: Gal(b1-3)Gal(b1-4)GlcNAc
# Outline: as §1
# Gal(b1-3)GalNAc = molecular target: Gal(b1-3)GalNAc
# Outline: as §1
# [11] = molecular target: Gal(b1-3)GalNAc(a1-3)[Fuc(a1-2)]Gal(b1-4)Glc
# Outline: as §1
# [12] = molecular target: Gal(b1-3)GalNAc(a1-3)[Fuc(a1-2)]Gal(b1-4)GlcNAc
# Outline: as §1
# Gal(b1-3)GalNAc(b1-3)Gal = molecular target: Gal(b1-3)GalNAc(b1-3)Gal
# Outline: as §1
# [13] = molecular target: Gal(b1-3)GalNAc(b1-3)Gal(a1-4)Gal(b1-4)Glc
# Outline: as §1
# [14] = molecular target: Gal(b1-3)GalNAc(b1-4)Gal(b1-4)Glc
# Outline: as §1
# [15] = molecular target: Gal(b1-3)GalNAc(b1-4)[Neu5Ac(a2-3)]Gal(b1-4)Glc
# Outline: as §1
# Gal(b1-3)GlcNAc = molecular target: Gal(b1-3)GlcNAc
# Outline: as §1
# [16] = molecular target: Gal(b1-3)GlcNAc(a1-3)Gal(b1-4)GlcNAc
# Outline: as §1
# [17] = molecular target: Gal(b1-3)GlcNAc(a1-6)Gal(b1-4)GlcNAc
# Outline: as §1
# Gal(b1-3)GlcNAc(b1-2)Man = molecular target: Gal(b1-3)GlcNAc(b1-2)Man
# Outline: as §1
binder,measurement,setting,value
Di AAL2 (Agrocybe aegerita) (protein) MTSNVITQDLPIPVASRGFADIVGFGLDGVVIGRNAVNLQPFLAVKNFAQNAGGWLTTKHVRLIADTTGTGKGDIVGFGNAGVYVSVNNGKNTFADPPKMVIANFGYDAGGWRVEKHLRYLADIRKIGRADIIGFGEKGVLVSRNNGGLNFGPATLVLKDFGYDAGGWRLDRHLRFLADVTGNGHLDIVGFGDKHVFISRNNGDGTFAPAKSVIDNFCIDAGGWKIGDHPRFVADLTGDGTADIIGCGKAGCWVALNNGGGVFGQVKLVINDFGTDKGWQAAKHPRFIADLTGNGRGDVVGFGNAGVYVALNNGDGTFQSAKLVLKDFGVQQGWTVSKHRRFVVDLTGDGCADIIGFGEKETLVSYNDGKGNFGPVKALTNDFSFSGGKWAPETTVCWMANLDSSRHPAPAPMTSNVITQDLPIPVASRGFADIVGFGLDGVVIGRNAVNLQPFLAVKNFAQNAGGWLTTKHVRLIADTTGTGKGDIVGFGNAGVYVSVNNGKNTFADPPKMVIANFGYDAGGWRVEKHLRYLADIRKIGRADIIGFGEKGVLVSRNNGGLNFGPATLVLKDFGYDAGGWRLDRHLRFLADVTGNGHLDIVGFGDKHVFISRNNGDGTFAPAKSVIDNFCIDAGGWKIGDHPRFVADLTGDGTADIIGCGKAGCWVALNNGGGVFGQVKLVINDFGTDKGWQAAKHPRFIADLTGNGRGDVVGFGNAGVYVALNNGDGTFQSAKLVLKDFGVQQGWTVSKHRRFVVDLTGDGCADIIGFGEKETLVSYNDGKGNFGPVKALTNDFSFSGGKWAPETTVCWMANLDSSRH,glycan array binding signal (z-score),Gal(a1-3)Gal(b1-4)GlcNAc,-0.345
same,glycan array binding signal (z-score),[1],-0.325
same,glycan array binding signal (z-score),[2],-0.329
same,glycan array binding signal (z-score),[3],-0.333
same,glycan array binding signal (z-score),[4],-0.268
same,glycan array binding signal (z-score),[5],-0.339
same,glycan array binding signal (z-score),[6],-0.318
same,glycan array binding signal (z-score),Gal(a1-3)GalNAc,-0.326
same,glycan array binding signal (z-score),[7],-0.336
same,glycan array binding signal (z-score),[8],-0.333
same,glycan array binding signal (z-score),Gal(a1-4)Gal(b1-4)Glc,-0.332
same,glycan array binding signal (z-score),Gal(a1-4)Gal(b1-4)GlcNAc,-0.332
same,glycan array binding signal (z-score),[9],5.32
same,glycan array binding signal (z-score),[10],0.095
same,glycan array binding signal (z-score),Gal(a1-4)GlcNAc,-0.34
same,glycan array binding signal (z-score),Gal(a1-6)Glc,-0.33
same,glycan array binding signal (z-score),Gal(b1-2)Gal,-0.333
same,glycan array binding signal (z-score),Gal(b1-3)Gal,-0.332
same,glycan array binding signal (z-score),Gal(b1-3)Gal(b1-4)GlcNAc,-0.337
same,glycan array binding signal (z-score),Gal(b1-3)GalNAc,-0.334
same,glycan array binding signal (z-score),[11],-0.322
same,glycan array binding signal (z-score),[12],-0.324
same,glycan array binding signal (z-score),Gal(b1-3)GalNAc(b1-3)Gal,-0.329
same,glycan array binding signal (z-score),[13],-0.331
same,glycan array binding signal (z-score),[14],-0.331
same,glycan array binding signal (z-score),[15],-0.314
same,glycan array binding signal (z-score),Gal(b1-3)GlcNAc,-0.331
same,glycan array binding signal (z-score),[16],-0.327
same,glycan array binding signal (z-score),[17],-0.337
same,glycan array binding signal (z-score),Gal(b1-3)GlcNAc(b1-2)Man,-0.323
